The campaign covered roughly 310,000 compounds. About 2,200 (0.71%) showed an effect of 50% or more. The effect is printed as a negative number. Some of the results follow.
target: human ether-à-go-go-related gene (hERG) potassium channel (human, UniProt Q12809); assay: primary screen, population patch clamp on CHO cells stably expressing hERG
Sequence (Q12809 whole entry, looked up): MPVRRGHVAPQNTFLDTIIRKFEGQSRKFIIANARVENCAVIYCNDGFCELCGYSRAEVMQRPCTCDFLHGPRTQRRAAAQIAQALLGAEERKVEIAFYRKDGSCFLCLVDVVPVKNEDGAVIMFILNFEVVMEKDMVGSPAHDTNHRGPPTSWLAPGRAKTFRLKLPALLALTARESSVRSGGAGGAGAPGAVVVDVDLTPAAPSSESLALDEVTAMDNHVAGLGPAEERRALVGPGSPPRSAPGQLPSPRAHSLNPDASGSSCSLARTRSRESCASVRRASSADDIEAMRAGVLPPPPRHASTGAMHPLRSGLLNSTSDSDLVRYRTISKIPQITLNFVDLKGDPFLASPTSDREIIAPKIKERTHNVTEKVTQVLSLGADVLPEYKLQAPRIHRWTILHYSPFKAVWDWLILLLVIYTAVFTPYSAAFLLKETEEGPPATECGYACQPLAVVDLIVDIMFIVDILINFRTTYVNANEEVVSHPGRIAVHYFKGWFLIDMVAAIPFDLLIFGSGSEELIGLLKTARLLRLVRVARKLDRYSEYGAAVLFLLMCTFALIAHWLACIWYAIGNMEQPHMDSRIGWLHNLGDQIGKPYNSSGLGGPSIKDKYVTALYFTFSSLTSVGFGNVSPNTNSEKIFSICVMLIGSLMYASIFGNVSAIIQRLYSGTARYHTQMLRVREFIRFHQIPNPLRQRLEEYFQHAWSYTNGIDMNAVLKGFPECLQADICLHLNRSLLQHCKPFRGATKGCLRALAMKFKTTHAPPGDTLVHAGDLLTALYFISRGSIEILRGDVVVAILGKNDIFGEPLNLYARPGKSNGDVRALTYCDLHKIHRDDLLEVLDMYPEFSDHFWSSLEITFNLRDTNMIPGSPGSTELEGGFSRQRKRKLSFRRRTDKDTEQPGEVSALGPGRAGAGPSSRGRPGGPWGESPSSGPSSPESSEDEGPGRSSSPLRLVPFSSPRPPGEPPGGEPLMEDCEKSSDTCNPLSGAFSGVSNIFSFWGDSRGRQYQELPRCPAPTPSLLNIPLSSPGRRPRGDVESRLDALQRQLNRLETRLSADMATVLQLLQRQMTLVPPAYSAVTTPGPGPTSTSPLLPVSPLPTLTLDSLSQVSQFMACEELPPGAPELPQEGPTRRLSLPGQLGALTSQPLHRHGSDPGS

SMILES	hERG current change (%, negative = inhibition) at 1uM
C/C(=N\NC(=O)COc1ccccc1-c1ccccc1)c1cccnc1	-10.2%
CCc1cc2c(=O)c(-c3ccon3)c(N)oc2cc1OC	8.09%
COc1ccc(N2CCN(C(=O)CSc3nnc(CNc4ccccc4)o3)CC2)cc1	4.76%
COc1ccc(OC(=O)C2CC(=O)N(c3ccc(C)cc3)C2)cc1 (stereo not shown)	13.7%
Oc1ccccc1N1CCN(CC(O)COCc2ccccc2Cl)CC1 (stereo not shown)	-12.9%
O=C(Oc1ccc(F)c(F)c1)c1ccc2c(=O)n3c(nc2c1)CCC3	10.5%
Cn1c2c(c(=O)n(C)c1=O)C(c1cccc(F)c1)C(C#N)=C(N)O2 (stereo not shown)	14.5%
C=CCn1c(Cc2cccs2)nnc1SC/C=C/c1ccccc1	1.58%
O=C(Nc1ccc(C(=O)O)cc1)/C(=C\c1ccco1)NC(=O)c1ccco1	5.91%
CC(=O)N1c2ccccc2C(C)(C)C2CCC(C)CC21 (stereo not shown)	-6.13%
CCN(CC)CCNC(=S)Nc1ccc2nc(N3CCOCC3)cc(C)c2c1	8.68%
COc1ccc(-c2cc3cc(OC)c(OC)cc3c(C)n2)cc1C	7.56%
Cc1ccc(C(=O)NCc2ccccn2)cc1NC1=NC2CS(=O)(=O)CC2S1 (stereo not shown)	16.2%
O=C(c1cc2cc(Cl)ccc2oc1=O)N1CCN(c2ccccn2)CC1	7.98%
CC1CCN(C(=O)CCNS(=O)(=O)c2ccc(Br)cc2)CC1	5.93%
O=C(CSc1nnc(CNC(=O)c2c(F)cccc2Cl)o1)NC1CCCC1	19.8%
O=C(CCCc1nc(-c2ccccc2Cl)no1)NC1CCCC1	12.6%
Cn1nnnc1Sc1ccc([N+](=O)[O-])cc1Cl	4.66%
Cc1ccc(S(=O)(=O)NCc2ccc3c(c2)OCO3)cc1C	6.71%
COc1ccc(NC(=O)c2ccsc2NC(C)=O)cc1	14.6%

SMILES	hERG current change (%, negative = inhibition) at 1uM
CCN1CCN(CC(=O)N2c3ccccc3Sc3ccccc32)CC1	22%
COc1ccc(NC(C)=O)cc1NC(=O)CSc1nnc(C2CCCCC2)n1N	8.45%
CCOc1ccccc1-n1c(CNc2ccc(F)cc2)nnc1SCC(=O)NCc1ccco1	-5.71%
CN(Cc1ccccc1)C(=O)c1[nH]cnc1C(=O)Nc1ccc(Cl)cc1	22.1%
COc1ccccc1OCc1ccc(C(=O)NC(C)(C)C)o1	11.1%
CC(C)N1C(=O)C2(OCCCO2)c2cc(Br)ccc21	23.6%
O=C(CC12CC3CC(CC(C3)C1)C2)NCO	8.9%
O=C(c1ccco1)N1CCN(CCOc2ccccc2)CC1	10.3%
CC(Sc1ccccc1)C(=O)NCCc1ccccc1 (stereo not shown)	9.22%
Cc1cc2c(c(=O)n1CCc1ccccc1)C(c1ccco1)C(C#N)=C(N)O2 (stereo not shown)	0.895%
CCOc1ccc(S(=O)(=O)Nc2cccc(C)c2)c2cccnc12	13.7%
COc1ccc(-n2c(Cc3cccn3C)nnc2SCC(=O)Nc2cccc(Cl)c2)cc1	3.32%
CC(=O)Nc1ccc(/C=C2/Sc3ccccc3C2=O)cc1	16.4%
Cn1c(SCC(=O)c2ccc3c(c2)OCCO3)nnc1C1CC1	8.32%
O=Cc1cn(-c2ccccc2)nc1-c1ccccc1	12%
O=C(O)CC/C(=C\c1ccc2c(c1)OCO2)c1nc2ccccc2s1	10.6%
Cc1ccc(OCc2nnc(SCC(=O)C(C)(C)C)n2Cc2ccco2)cc1	-1.91%
CC(=O)N1c2ccc(S(=O)(=O)NCCC(=O)Nc3ccc(C)c(F)c3)cc2CC1C (stereo not shown)	9.62%
CC(C)c1c(C(=O)N/N=C/C=C/c2ccccc2)nnn1-c1nonc1N	23.1%
Cc1noc(N)c1C(=O)Nc1ccc(C(C)(C)C)cc1	-5.42%

SMILES	hERG current change (%, negative = inhibition) at 1uM
Cc1ccc(NC(=O)C2CCN(C(=O)[C@@H]3Cc4ccccc4CN3)CC2)cc1	-19%
O=C(CNC(=O)c1ccccc1F)N/N=C/c1cccs1	14.2%
C/C(=N\NC(=O)c1ccco1)c1ccc(-c2ccccc2)cc1	4.99%
COc1cccc(-c2nnc(SCC(=O)N3CCCc4ccccc43)o2)c1	8.75%
O=C(Nc1cccc(-c2cn3ccsc3n2)c1)c1ccccc1	6.17%
CC(Oc1ccccc1)C(=O)NC1CCCCCCC1 (stereo not shown)	10.9%
CC(=O)c1ccc(N2CCN(S(=O)(=O)c3ccc(-c4cnc(C5CC5)o4)cc3)CC2)cc1	12.7%
N/C(=N/OCC(=O)Nc1cccc2ccccc12)c1nonc1N	-0.926%
CC(C)(C)N(NC(=O)Nc1ccccc1)C(=O)c1ccccc1	11.9%
Cc1ccc(C)c(Oc2coc3cc(O)ccc3c2=O)c1	0.658%
COc1cc(F)ccc1S(=O)(=O)N1CCN(c2ccccc2)CC1	8.34%
Cc1ccc(CSCCNC(=O)c2ccc(NS(C)(=O)=O)cc2)cc1	-6.66%
COc1ccc(-c2nnc(NC(=O)C3CCCN3S(=O)(=O)c3cccs3)o2)cc1 (stereo not shown)	10.3%
COc1ccc(CCNCC(=O)Nc2ccc(C)c(S(=O)(=O)N(C)C)c2)cc1.O=C(O)C(=O)O	-7.32%
COc1cc(/C=N/O)cc(Br)c1OS(=O)(=O)c1ccc(C)cc1	8.96%
CCOC(=O)c1c(C)[nH]c(C)c1S(=O)(=O)N(C)CC(=O)N1CCN(c2ccc(OC)cc2)CC1	1.58%
CCn1c(C)nc2cc(S(N)(=O)=O)ccc21	17.8%
CCCOC(=O)c1ccc(NC(=O)CCC(=O)OCC)cc1	5.04%

From paper PMC4336329 (PLoS ONE, 2015)
